Reference: PubChem BioAssay AID1159614 (National Center for Advancing Translational Sciences (NCATS), 2016)
Screen size: about 45,000 compounds; about 65 (0.1%) were called active. Calls follow the shape of the dose curve; as a rule, active = well fitted activation curve with a large enough effect; inconclusive = small, poorly fitted or top-dose-only effect; inactive = no such curve, though single readings can be large or run the other way. Some of the results follow.

Target: Galactocerebrosidase (Homo sapiens) (UniProt P54803)
UniProt P54803, sequence (P54803 whole entry, looked up): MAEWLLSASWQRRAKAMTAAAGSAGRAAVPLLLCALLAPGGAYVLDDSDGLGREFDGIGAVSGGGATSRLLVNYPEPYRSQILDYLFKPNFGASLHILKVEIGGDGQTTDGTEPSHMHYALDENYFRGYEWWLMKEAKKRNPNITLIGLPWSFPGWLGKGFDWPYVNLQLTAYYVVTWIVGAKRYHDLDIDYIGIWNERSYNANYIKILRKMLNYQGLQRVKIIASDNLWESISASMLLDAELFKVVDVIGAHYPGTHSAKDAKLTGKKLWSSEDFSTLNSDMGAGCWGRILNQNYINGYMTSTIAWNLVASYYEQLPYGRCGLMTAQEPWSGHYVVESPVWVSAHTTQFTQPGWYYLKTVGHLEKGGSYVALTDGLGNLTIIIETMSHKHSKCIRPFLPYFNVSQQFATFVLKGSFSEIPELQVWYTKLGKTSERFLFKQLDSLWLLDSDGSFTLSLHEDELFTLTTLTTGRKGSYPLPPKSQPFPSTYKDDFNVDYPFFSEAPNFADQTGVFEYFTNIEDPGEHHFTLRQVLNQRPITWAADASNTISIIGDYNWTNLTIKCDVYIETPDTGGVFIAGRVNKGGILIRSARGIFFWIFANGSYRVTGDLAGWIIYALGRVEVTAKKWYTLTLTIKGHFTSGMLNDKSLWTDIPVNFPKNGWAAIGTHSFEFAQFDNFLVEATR
Test: A Novel Cell-Based Assay to Identify Small Molecules for B -Galactocerebrosidase; also: 0% is about no effect; nearly all actives have a fitted effect of over 65% in size
Conditions: 145M-Twi-hGALC-G270D cells (Twitcher mouse brain line with human GALC G270D), HMU-beta-Gal fluorescence, 48 h; series mostly up to 57.5 µM; activation: at the top concentration
Method in brief: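 Brain-derived Twitcher mouse 145M-Twi cells stably expressing human GALC-G270D or wild-type GALC, treated live, then residual GALC activity read by fluorescence of HMU-b-Gal substrate (0.1 mM final) in citrate-phosphate buffer pH 5.2 with sodium taurocholate. Signal increase indicates enhancement.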

activation, inactive:
Cc1ccc(C(=O)Nc2ccc3oc(-c4ccc(C(C)(C)C)cc4)nc3c2)cc1 11.1%
COc1ccc(-c2ccc(=O)n(CC(=O)Nc3ccc(C)cc3C)n2)cc1 -3.74%
O=c1n(Cc2cccc(C(F)(F)F)c2)c2ccccc2c2nc(-c3ccccc3)nn12 -5.34%
Cc1ccc(-c2ccc(CCC(=O)O)n2-c2cccc(O)c2)cc1 -16.4%
COc1ccc(-c2noc(CCC(=O)NCc3ccc(C)cc3)n2)cc1 -6.86%
C#CCOc1ccc(-c2nnc(Nc3cccc(C)c3)c3ccccc23)cc1 -3.96%
Cc1cccc(Cn2c(=O)n(CCc3ccccc3)c(=O)c3c(C)c(C)sc32)c1 -6.75%
Cc1ccc(NC(=O)c2cc(C)nc3c2c(C)nn3-c2cccc(Cl)c2C)c(C)c1 -1.08%
Cc1ccc(NS(=O)(=O)c2ccc3[nH]c(=O)ccc3c2)cc1N(C)C -24.8%
CSc1nn(Cc2ccc(Cl)cc2)c(N(C(C)=O)C(C)=O)c1S(=O)(=O)c1ccccc1 -3.88%
CCc1ccc2oc(C(=O)Nc3cccc(C(F)(F)F)c3)cc(=O)c2c1 -13.9%
COc1ccccc1CN1COc2ccc3c(oc(=O)c4ccccc43)c2C1 -17%
CCn1cc(C(=O)NCc2ccccc2OC)c(=O)c2cc(S(=O)(=O)N3CCCCC3)ccc21 5.13%
CCOC(=O)C1CCC(CN(Cc2ccc(Cl)cc2)S(=O)(=O)c2ccc(F)c(C(=O)Nc3cccc(F)c3)c2)CC1 (stereo unspecified) -17.5%
CCOC(=O)c1cnc(NCc2ccccc2OC)c2ccccc12 -26%
COc1cccc2sc(=NC(=O)c3ccc(S(=O)(=O)N4CCCCC4)cc3)n(C)c12 12.8%
COc1ccc(S(=O)(=O)N2CCCCC2)cc1C(=O)Nc1cccc(C(F)(F)F)c1 -9.78%
COc1ccc(/C=C/C(=O)Nc2sc3c(c2C(N)=O)CCCC3)cc1 -1.83%
COc1ccccc1Nc1cc(C(=O)NC2CCCC2)c2ccccc2n1 -4.98%
CCn1c(=O)cc(SCC(=O)NCCc2ccc(Cl)cc2)c2ccccc21 -15.8%
Cc1oc2ncn(CC(C)C)c(=O)c2c1C(=O)Nc1cc(F)ccc1F -11.6%
CC(C)(C)C(=O)NCCc1nc2ccccc2n1CCCCOc1ccc(Cl)cc1 -16.5%
Cc1ccc(Cn2c(C(=O)O)c(CNC3CCCCCC3)c3ccc(C)cc32)cc1 4.28%
COc1ccc(Cn2c(C(=O)O)c(CNCCc3cccs3)c3ccc(C)cc32)cc1 -8.16%
COc1ccccc1CNC(=O)c1ccc2c(c1)N(Cc1cccc(Cl)c1)C(=O)c1ccccc1S2(=O)=O -9.39%
Cc1ccc(NC(=O)Cn2c(=O)n(CCC(=O)N3CCc4ccccc4C3)c(=O)c3ccccc32)cc1 -11%
